# Results as given in ChEMBL document CHEMBL4888484, “Replenishing the malaria drug discovery pipeline: Screening and hit evaluation of the MMV Hit Generation Library 1 (HGL1) against asexual blood stage Plasmodium falciparum ,using a nano luciferase reporter read-out” (2022).
# The campaign covered roughly 150,000 compounds. About 540 (0.36%) showed an effect of 50% or more. This is one part of the list.
# Tested on: Plasmodium falciparum
# Assay: Primary screen in NF54 nanoGlo assay, in single point, at 2uM, 72h; a lower Z score goes with more inhibition
# Type: functional, Erythrocyte
# Conditions: timepoint 72 hour
Compound,% Inhibition,Z score
Cc1ccc(F)cc1NC(=O)c1sc2sc(C(=O)Nc3cc(F)ccc3C)c(N)c2c1N,6%,-0.8
Cc1cc(C)c(S(=O)(=O)NCCn2c(-c3ccc(F)cc3)nc3ccccc32)cc1C,1%,-0.11
COc1cccc2c(=O)c(NC(=O)NCc3ccco3)c[nH]c12,-9%,1.13
COc1cc(F)c(CN(C)Cc2cc(C)no2)c(F)c1,-2%,0.4
Cc1sc2nc(C(F)(F)F)nc(N3CCCN(C(=O)C4CCCC4)CC3)c2c1C,-7%,1.05
CCn1c(=O)c(C(=O)NCC2CCCCC2)nc2cccnc21,-7%,0.78
CCN(Cc1cnc2c(-c3ccccc3)cnn2c1)Cc1ccccc1F,-8%,0.8
O=C(c1cccn2c(=O)c3cc(Cl)ccc3nc12)N1CCN(Cc2ccc3c(c2)OCO3)CC1,-5%,0.61
Cc1n[nH]c(-c2ccc(Br)cn2)n1,1%,-0.21
O=C1CCCN1CCCN(C(=O)c1cc(C2CC2)[nH]n1)C1CCOCC1,-1%,0.21
CN(C(=O)CCCS(C)(=O)=O)c1ccc(-c2ccccc2)cc1,-3%,0.26
CN1CCC2C(CCCN2C(=O)C(=O)Nc2ccccc2Cl)C1 (stereo not drawn),9%,-0.99
O=C1C[C@H](CNCc2ncc(Cl)s2)CN1C1CC1,-12%,1.88
O=C(Nc1cc(F)c(OC(F)F)cc1F)N1CCCOCC1,-3%,0.32
O=C(CCCN1C(=O)[C@H]2Cc3ccccc3CN2C1=O)NC[C@H]1CCCN2CCCC[C@@H]12,-5%,0.65
Cc1ccc(C)c(-c2cn3c(C(=O)N(C)Cc4nc(C)no4)csc3n2)c1,2%,-0.28
CC1(C2CCCN(CCOc3cccc(C#N)c3)C2)NC(=O)NC1=O (stereo not drawn),25%,-2.84
COc1ccc(CC(=O)N2CCC3(CC2)C[C@@H](CNS(C)(=O)=O)CCO3)cc1,3%,-0.53
CN1C[C@@H](C(=O)N2CCC(c3nccn3CC3CC3)CC2)Oc2ccccc21,-1%,0.14
C[C@H]1CN(C(=O)N2CCC(C(=O)NCCC3=CCCCC3)CC2)c2ccccc2O1,6%,-1.13
CC(=O)Cn1cc(C(F)(F)F)ccc1=O,-1%,0.11

Compound,% Inhibition,Z score
CCC(CC)C(=O)N1CCN(c2ncccc2NC(=O)c2ccc3c(c2)OCO3)CC1,-13%,1.9
Cc1cc(C)n(-c2ccc(C(=O)N3CCCC3)cc2)n1,-10%,1.24
CCCN(CC(=O)N1CCn2cccc2[C@H]1c1ccc(C(C)(C)C)cc1)C(=O)CCc1ccccc1,10%,-1.11
COc1ccc(NC(C)=O)cc1NC(=O)c1cc2c(OC)ccc(OC)c2n1C,10%,-1.21
O=C(O)[C@@H]1CCN(Cc2ccon2)c2ccc(Br)cc21,0%,0.06
Cc1ccsc1[C@H]1CCN(Cc2cc(CC(C)C)[nH]n2)C[C@@H]1O,-2%,0.32
Cc1ccc(CN(C(=O)c2cnc(C)cn2)[C@H]2CCc3ccccc32)cc1,-8%,0.98
Cc1ccc(Cl)cc1N(CCCC(=O)N1CCOCC1)S(C)(=O)=O,-7%,0.81
COc1ccc(S(=O)(=O)c2c(N)n(Cc3ccccc3Cl)c3nc4ccccc4nc23)cc1,-8%,0.71
CCOc1ccc(CNC(=O)c2cnc(N3CCCCCC3)nc2N)cc1,-7%,0.86
COc1ccc(C(=O)N2CCCN(C[C@H]3CN(C(=O)c4ccc(Cl)c(Cl)c4)CCO3)CC2)cc1OC,-3%,0.32
Cc1cc(C(F)(F)F)ccc1OCC(=O)NCC1CCC1,-2%,0.18
Cc1ccn(CCNC(=O)CCc2nc3ncc(Br)cc3[nH]2)n1,-13%,1.96
CC(C)(C)OC(=O)N1CCC(c2c(C(=O)NCCCN3CCCCC3)cnn2-c2ccc(F)cc2F)CC1,-14%,2.47
CN(Cc1ccccc1)C(=O)c1nccnc1NC(=O)c1ccccc1,-12%,1.79
O=C(N1CCOCC1)N1CC[C@@H]2CN(c3ncccn3)C[C@@H]21,-4%,0.7
O=C(c1n[nH]c2c1CCC2)N1CCC[C@H](c2nc3ccccc3s2)C1,-25%,4.34
CN(Cc1cscn1)C1CCC(NC(=O)OC(C)(C)C)CC1 (stereo not drawn),-16%,1.33
Cc1nc(O)cc(N2CCC[C@H](c3ccn[nH]3)C2)n1,-4%,0.76
C[C@](O)(CNc1nccnc1C#N)c1ccc(F)cc1F,-12%,1.9
C#Cc1ccc(CN[C@@H](CC(C)C)C(=O)NC)cc1,-1%,0.12

Compound,% Inhibition,Z score
Cc1nn(C(C)C)c(C)c1NS(=O)(=O)c1ccc2c(c1)CC(=O)N2,-5%,0.72
O=C1Nc2ccccc2C[C@@H]1NS(=O)(=O)C1CN(C(=O)C2CCCC2)C1,-10%,0.92
Cc1nc[nH]c1CN1C[C@H]2CC[C@@H](C1)N(C(=O)c1ccc3[nH]cnc3c1)C2,1%,-0.19
CCCCN(C)CCC(=O)Nc1ccc(Br)cc1,-1%,0.08
COc1cccc(CC(=O)OCc2snnc2C)c1,-14%,1.81
CCc1nn(C)c(Cl)c1CN1[C@@H]2CC[C@H]1CN(C)CC2,-4%,0.89
COc1cc2c(cc1CN(CCO)Cc1nccs1)OCO2,11%,-2.08
CCOc1ccccc1NC(=O)c1ccc(F)c(S(=O)(=O)N2CCC2)c1,1%,-0.21
CCCOC[C@H]1CCN(C(=O)c2cccnc2NC)C1,-2%,0.4
CC[C@H](NC(=O)Nc1c(C)c(-c2ccccc2)nn1C)c1cnn(C)c1,2%,-0.34
O=c1[nH]c2cc3c(cc2c(-c2ccc(Cl)cc2)c1CN1CCOCC1)OCCO3,2%,-0.28
O=C(c1ccccc1F)N(Cc1cccc(Cl)c1)C[C@H]1CC(c2ccccc2)=NO1,-18%,1.91
O=C(c1cc(=O)[nH]c2ccc(F)cc12)N1CCC[C@@]2(CCOC2)C1,3%,-0.52
CN1CCC[C@@H]1CN1CCO[C@H](c2ccc(Cl)cc2)C1,2%,-0.27
CC(C)c1ccc(-c2cc3c(=O)n(CCC(=O)NC[C@H]4CCCO4)ccn3n2)cc1,-19%,2.42
C[C@@H](CC(=O)c1cccc(F)c1)C(=O)N(C)Cc1ccccn1,-1%,0.15
Cc1nc(C)c(CC(=O)N2CCc3ccccc32)c(=O)[nH]1,-6%,0.9
O=C1CN(c2cc(N3CCCC3)ncn2)CCN1c1cccs1,-16%,1.67
Cn1cccc1[C@@H]1CCCN1CCN1C(=O)NC2(CCCC2)C1=O,-2%,0.23
Nc1nccnc1C(=O)Nc1cccc(-n2ccnn2)c1,-8%,1.55
CC(C)CS(=O)(=O)NC(=O)CCOc1ccccc1,3%,-0.44

Compound,% Inhibition,Z score
C[C@H]1CN(C)CCCN1C(=O)c1cc(-c2cnn(C)c2)nc2ccccc12,-13%,1.84
CC(Cn1ccnc1)NC(=O)C(C)Oc1ccc(-c2ccccc2)cc1 (stereo not drawn),-4%,0.66
CN(C(=O)CCc1cccnc1)[C@H]1CCCN(Cc2ccccc2)C1,-5%,0.55
COc1ncccc1CN(CCCO)c1ccccc1,-11%,1.22
CC(=O)N(C)c1cccc(NC(=O)c2nccnc2N)c1,-2%,0.18
Cc1nc(C2CC2)sc1C(=O)NC(C)(C)c1cc(C(F)F)on1,8%,-1.07
O=C(CN1CCCC[C@H](O)C1=O)Nc1ccc2c(c1)CC(=O)N2,-7%,1.31
Cc1nn(-c2ccc3nnc(C)n3n2)c(C)c1CCC(=O)N1CCCCCC1,-10%,1.28
O=C1CN(C(=O)Cn2ccnc2)c2ccccc2N1,-9%,1.06
CN1CC2(CCN(Cc3ccccc3OCCc3ccccc3)CC2)CC1=O,0%,-0.02
Cc1cnn(CCC(=O)N2CCN([C@@H](C)c3nccs3)CC2)c1,2%,-0.31
O=C(NCC(F)(F)C1(O)CCCCC1)c1csnn1,10%,-1.95
CC(=O)c1nn(C(C)C)cc1OCCOc1ccccc1F,-1%,0.22
Cc1cc(C(=O)NC[C@H](Cc2ccc3ccccc3c2)C(=O)O)no1,-10%,1.89
CN(Cc1cccnc1)C(=O)Nc1ccncc1F,-17%,2.26
Cc1cnc(NCC2(Cn3ccnc3C)CC2)nc1,-2%,0.27
CCNC(=O)[C@@H]1C[C@@H](NCc2ccc(C(F)(F)F)cc2)CN1C1Cc2ccccc2C1,-14%,1.93
O=C(NCCO)c1cccc(NC[C@H]2CCC=CO2)c1,1%,-0.09
CCNC(=O)NC(=O)CNC(C)(C)c1nc(C)c(C)s1,-6%,0.77
Cc1cc(-c2ccc(C(=O)N(C)CCn3ccnc3C)cc2)c(=O)[nH]n1,-11%,1.63
COC(=O)C1(CNC2CCC(C)C(C)C2)CCOCC1 (stereo not drawn),13%,-2.05
